In the antibiotic and cytotoxicity screens of Wong et al. (2023):
The other results are listed elsewhere or left out.

These compounds were tested on HepG2 (assay: cytotoxicity call (relative viability < 0.9)). Conditions: 10 µM.

Structure (SMILES)	cytotoxicity call
C[C@@H]1CN([C@H](C)CO)C(=O)c2cccc(NS(=O)(=O)c3cccs3)c2O[C@H]1CN(C)Cc1ccncc1	inactive
O=C(C[C@@H]1CC[C@H](NC(=O)CN2CCOCC2)[C@H](CO)O1)NC1CCC1	inactive
O=C(N[C@@H]1C=C[C@@H](CC(=O)N2CCOCC2)O[C@@H]1CO)c1ccccn1	inactive
C[C@H](CO)N1C[C@H](C)[C@@H](CN(C)Cc2cccnc2)Oc2cc(C#CCN(C)C)ccc2S1(=O)=O	inactive
O=C(Nc1ccc(Cl)cc1C(=O)c1ccc(Cl)cc1)c1cc(Br)ccc1NS(=O)(=O)c1ccc(Cl)cc1	active
CC(/C=C/C(=O)NO)=C\c1ccccc1OCc1cn(-c2cccc(N(S(=O)(=O)c3ccc(C)cc3)S(=O)(=O)c3ccc(C)cc3)c2)nn1	active
COc1ccc(CN(C)C[C@@H]2OCCCC[C@H](C)Oc3ccc(NC(=O)c4ccccc4)cc3C(=O)N([C@@H](C)CO)C[C@@H]2C)cc1	inactive
CCCC(=O)Nc1ccc2c(c1)OC[C@@H](C)N(S(=O)(=O)c1cn(C)cn1)C[C@H](C)[C@@H](OC)CN(C)C2=O	inactive
COCC(=O)N(C)C[C@@H]1Oc2cc(-c3ccc(C#N)cc3)ccc2S(=O)(=O)N([C@H](C)CO)C[C@@H]1C	inactive
C[C@@H]1CN([C@@H](C)CO)C(=O)Cc2cc(NS(=O)(=O)c3ccc(F)cc3)ccc2O[C@@H]1CN(C)C(=O)Nc1cccc2ccccc12	inactive
C[C@H](CO)N1C[C@H](C)[C@@H](CN(C)Cc2ccc(-c3ccccc3)cc2)Oc2ncc(-c3cccnc3)cc2C1=O	inactive
C/C=C/c1cnc2c(c1)C(=O)N([C@H](C)CO)C[C@H](C)[C@@H](CN(C)S(=O)(=O)c1ccc(OC)cc1)O2	inactive
C[C@H]1CN([C@@H](C)CO)C(=O)c2cccc(NS(C)(=O)=O)c2O[C@H]1CN(C)C(=O)Nc1ccc(F)cc1	inactive
C[C@H](CO)N1C[C@H](C)[C@H](CN(C)Cc2ccc(C(=O)Nc3ccccc3N)cc2)Oc2ccc(NC(=O)Cn3cnnn3)cc2CC1=O	inactive
C/C=C/c1ccc2c(c1)O[C@H](CN(C)S(=O)(=O)c1ccccc1)[C@H](C)CN([C@@H](C)CO)S2(=O)=O	inactive
C[C@@H]1CN([C@@H](C)CO)C(=O)c2cc(NC(=O)c3ccccc3)ccc2O[C@@H](C)CCCCO[C@@H]1CN(C)C(=O)Cc1ccccc1	inactive
C[C@H](CO)N1C[C@H](C)[C@@H](CN(C)S(=O)(=O)c2cn(C)cn2)Oc2ccc(NS(=O)(=O)c3cccs3)cc2C1=O	inactive
CC[C@@H](C)NC(=O)Cn1cnc2c1c(=O)n(C)c(=O)n2C	inactive
C[C@@H]1CN([C@@H](C)CO)C(=O)c2c(c3ccccc3n2C)-c2ccccc2CO[C@H]1CN(C)C(=O)NC1CCCCC1	inactive
COc1ccc(NC(=O)N(C)C[C@H]2Oc3c(NS(=O)(=O)c4cn(C)cn4)cccc3C(=O)N([C@H](C)CO)C[C@@H]2C)cc1	inactive
COc1ccc(S(=O)(=O)Nc2ccc3c(c2)C(=O)N([C@H](C)CO)C[C@H](C)[C@H](CN(C)S(=O)(=O)c2cccs2)O3)cc1	inactive
CC1CCC2(C)C(C=O)=CCCC2C1(C)CC1OC(O)C(=O)C12CO2 (stereo not given)	active
COc1ccc(CN(C)C[C@H]2OCCCC[C@@H](C)Oc3ccc(NC(=O)NC4CCCCC4)cc3C(=O)N([C@@H](C)CO)C[C@H]2C)cc1	inactive
COc1ccc(S(=O)(=O)Nc2ccc3c(c2)C(=O)N([C@H](C)CO)C[C@@H](C)[C@H](CN(C)S(=O)(=O)c2ccc(Cl)cc2)OCCCC[C@H](C)O3)cc1	inactive
C[C@@H]1CN([C@@H](C)CO)S(=O)(=O)c2ccc(-c3ccc(C#N)cc3)cc2O[C@@H]1CN(C)C(=O)CN(C)C	inactive
CCOc1ccc(Cc2cc(C3OC(CO)C(O)C(O)C3O)ccc2Cl)cc1 (stereo not given)	inactive
COc1ccc(S(=O)(=O)N(C)C[C@H]2Oc3ccc(N(C)C)cc3C(=O)N([C@H](C)CO)C[C@H]2C)cc1	inactive
C[C@H](CO)N1C[C@H](C)[C@@H](CN(C)S(=O)(=O)c2ccc(F)cc2)Oc2ccc(NC(=O)Nc3cccc4ccccc34)cc2C1=O	inactive
C[C@@H]1CN([C@@H](C)CO)C(=O)c2cccc(NC(=O)c3cnccn3)c2O[C@@H]1CN(C)C(=O)Nc1ccc(F)cc1	inactive
O=C(C[C@@H]1CC[C@@H]2[C@H](COC[C@H](O)CN2S(=O)(=O)c2cccc(Cl)c2)O1)NCCCN1CCOCC1	inactive
